From PMC4336329 (PLoS ONE, 2015)
Hit rate of the full screen: of about 310,000 compounds, about 14,000 (4.5%) showed an effect of 50% or more. Effects have a minus sign here. The list shows a part of the results.

target: human ether-à-go-go-related gene (hERG) potassium channel (human, UniProt Q12809); assay: primary screen, population patch clamp on CHO cells stably expressing hERG
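Note: peak tail current of the secondary pulse compared with the same well before compound.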

Chain of human ether-à-go-go-related gene (hERG) potassium channel (Q12809 whole entry, looked up): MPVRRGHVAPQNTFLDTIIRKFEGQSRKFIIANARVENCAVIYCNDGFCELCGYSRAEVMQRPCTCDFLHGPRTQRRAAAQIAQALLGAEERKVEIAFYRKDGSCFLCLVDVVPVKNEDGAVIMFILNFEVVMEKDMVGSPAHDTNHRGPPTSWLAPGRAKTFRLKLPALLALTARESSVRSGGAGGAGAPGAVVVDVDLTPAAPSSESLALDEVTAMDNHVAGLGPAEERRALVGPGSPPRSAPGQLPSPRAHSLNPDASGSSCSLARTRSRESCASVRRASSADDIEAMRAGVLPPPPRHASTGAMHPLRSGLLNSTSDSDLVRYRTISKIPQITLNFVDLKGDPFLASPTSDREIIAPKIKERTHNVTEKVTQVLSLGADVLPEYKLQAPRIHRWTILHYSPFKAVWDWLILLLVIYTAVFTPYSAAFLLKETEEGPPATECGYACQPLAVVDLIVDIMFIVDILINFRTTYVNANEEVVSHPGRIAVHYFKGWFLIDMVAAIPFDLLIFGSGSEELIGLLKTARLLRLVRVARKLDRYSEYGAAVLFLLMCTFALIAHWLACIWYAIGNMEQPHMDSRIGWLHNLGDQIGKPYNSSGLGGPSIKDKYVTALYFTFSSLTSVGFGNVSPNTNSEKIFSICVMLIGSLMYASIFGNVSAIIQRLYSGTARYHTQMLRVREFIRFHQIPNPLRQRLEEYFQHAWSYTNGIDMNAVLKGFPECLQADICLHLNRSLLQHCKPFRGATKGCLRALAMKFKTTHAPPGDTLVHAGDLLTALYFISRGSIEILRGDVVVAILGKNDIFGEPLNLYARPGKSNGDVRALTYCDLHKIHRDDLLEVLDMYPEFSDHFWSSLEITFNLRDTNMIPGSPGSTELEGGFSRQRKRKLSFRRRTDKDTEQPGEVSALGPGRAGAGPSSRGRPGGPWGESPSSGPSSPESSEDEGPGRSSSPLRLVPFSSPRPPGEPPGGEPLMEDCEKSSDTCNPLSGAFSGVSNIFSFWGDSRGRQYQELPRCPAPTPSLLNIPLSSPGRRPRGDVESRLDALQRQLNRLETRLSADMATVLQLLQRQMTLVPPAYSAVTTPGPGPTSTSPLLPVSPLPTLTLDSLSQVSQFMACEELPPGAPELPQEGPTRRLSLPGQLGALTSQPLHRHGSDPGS

| SMILES | hERG current change (%, negative = inhibition) at 10uM [%] |
| --- | --- |
| COc1ccccc1CCCNC(=O)C1CCC(=O)N(Cc2ccccc2F)C1 (stereo not shown) | -1.76 |
| CCc1nnc(SCC(=O)NC2CCCCC2)nc1CC | -10.4 |
| Cc1ccc(S(=O)(=O)NCCC(c2ccc(F)cc2)c2ccco2)cc1 (stereo not shown) | 10.8 |
| COc1ccc(N2CCN(S(=O)(=O)CCNC(=O)C(C)Oc3ccccc3)CC2)cc1 (stereo not shown) | -7.31 |
| CCCCC(=O)Nc1cccc(NC(=O)c2cccnc2Cl)c1 | 7.23 |
| Cc1cc(C)cc(NC(=O)C2C3C=CC4(O3)C2C(=O)N(CCCN(C)C)C4C(=O)NC2CCCC(C)C2C)c1 (stereo not shown) | -1.63 |
| O=C(CCSc1ccc(Cl)c(Cl)c1)NC12CC3CC(CC(C3)C1)C2 | 9.84 |
| CCc1cc(C(=O)N(C)CC(=O)Nc2c(Cl)cccc2Cl)sc1C | -2.89 |
| COC(=O)C1CCN(C(=O)CCC2CCCCC2)CC1 | -1.82 |
| COc1ccc(C2=CC(=O)CC(C)(C)C2)cc1OC | -0.218 |
| O=C(O)c1ccc(N(Cc2ccccc2)S(=O)(=O)c2ccccc2)cc1 | -1.2 |
| COc1ccc2nc(N3CCCC(O)C3)c(C#N)cc2c1 (stereo not shown) | -8.11 |
| COc1ccc2c(c1)CC[C@@H]1[C@@H]2CC[C@]2(C)[C@@H](C(C)=O)C[C@@H]12 | 3.71 |
| Cc1ccc(S(=O)(=O)N2CC=C(c3ccc(F)cc3)CC2)cc1 | -19.7 |
| Cc1ccc2c(CN3CCCCC3)cc(=O)oc2c1C | -1.49 |
| O=C(O)CC(c1ccc(Cl)cc1)N1C(=O)CCC1=O (stereo not shown) | -7.96 |
| COc1ccc(OC)c(S(=O)(=O)Nc2cccc(C(C)=O)c2)c1 | -6.8 |
| Cc1ccc(S(=O)(=O)Cn2nnnc2CN2CCOCC2)cc1 | 5.95 |
| Cc1cc(C#N)c(C)c(SCc2[nH]nc3c2C(c2ccccc2)C(C#N)=C(N)O3)n1 (stereo not shown) | -0.0623 |
| CCNc1nc(Oc2ccc(=O)[nH]n2)nc(SC)n1 | 8.57 |
| NC(=O)NCc1ccc(C(=O)OCc2ccncc2)cc1 | 9.6 |
| COc1cccc(N2CCN(c3nc(C)cc(C)c3C#N)CC2)c1 | 2.67 |

| SMILES | hERG current change (%, negative = inhibition) at 10uM [%] |
| --- | --- |
| COc1ccc2oc(C(=O)OCC(=O)Nc3ccccc3)c(C)c2c1 | -1.23 |
| CN(C)/C=C1/C(=O)NC(=O)N(CCNc2ncc(C(F)(F)F)cc2Cl)C1=O | -12.4 |
| COc1cccc(C2=CC(=O)CCC2)c1 | 5.78 |
| Cc1ccc(NC(=O)C(C)OC(=O)Cn2[nH]c(=O)c3ccccc3c2=O)cc1 (stereo not shown) | 14.8 |
| CC(C)=CCN1CCN(CC#Cc2ccccc2)CC1CCO (stereo not shown) | -13 |
| O=C(CCC(=O)N(CC(=O)NC1CCCCC1)Cc1cccs1)Nc1nccs1 | 4.6 |
| Cn1cc(-c2ccc(Cl)cc2)cc(C#N)c1=O | 2.64 |
| O=C(Nc1ccc2c(c1)CCC2)c1cnc(Cl)c(Cl)c1 | 0.674 |
| COc1cc(OC)c(OC)cc1CN1CCN(S(=O)(=O)c2ccc(NC(C)=O)cc2)CC1.O=C(O)C(=O)O | 7.87 |
| CN(Cc1c(C(=O)N/N=C/c2cccc(F)c2)nnn1-c1nonc1N)C1CCCCC1 | 19.2 |
| O=[N+]([O-])c1cccc(CN2CCC(Cc3ccccc3)CC2)c1 | -31.4 |
| Cc1[nH]cnc1CSCCN.Cl | 19.9 |
| OC(CN=c1sc2ccccc2n1CC(O)COc1ccccc1)COc1ccccc1 (stereo not shown) | -1.46 |
| CCn1cc(C(=O)O)c(=O)c2cnc(N3CCN(C(=S)Nc4ccccc4C(F)(F)F)CC3)nc21 | 6.26 |
| CCc1cccc(C)c1N=Cc1c(O)c2ccccc2oc1=O | 8.06 |
| CC(=O)Nc1ccc(-c2nnc(SCc3ccc(C)cc3)n2C)cc1 | -13.1 |
| O=C(CCNS(=O)(=O)c1ccccc1F)N1CCN(C(c2ccccc2)c2ccccc2)CC1 | -13.4 |
| O=C(NC1CCSc2ccccc21)c1cc(S(=O)(=O)N2CCOCC2)ccc1F (stereo not shown) | -1.04 |
| Cc1ccccc1N1CCN(C2CCCN(C(=O)CCn3cnnn3)C2)CC1 (stereo not shown) | -3.95 |
| CCOc1cc(/C=C2\NC(=O)NC2=O)cc([N+](=O)[O-])c1O | -5.87 |
| O=S(=O)(c1ccc(NC(=S)NN=C(Cc2ccccc2)Cc2ccccc2)cc1)N1CCOCC1 | 24.6 |
| Cc1ccnc(NS(=O)(=O)c2ccc(NC(=O)Cc3ccc(Cl)cc3)cc2)n1 | 14.3 |

| SMILES | hERG current change (%, negative = inhibition) at 10uM [%] |
| --- | --- |
| COC(=O)c1ccc(S(=O)(=O)NCCSc2nnc3c4ccccc4n(C)c3n2)cc1 | -8.59 |
| CCN(CC)S(=O)(=O)c1ccc2c(c1)nc(CCC(=O)OCC(=O)Nc1c(F)cccc1F)n2C | -34.6 |
| CCC(C(=O)Nc1cccnc1)n1c(=O)[nH]c2ccccc2c1=O (stereo not shown) | 10 |
| Cc1cc(NCCCN2CCOCC2)n2nc(C)c(-c3ccc(F)cc3)c2n1 | -31.1 |
| COc1cc(O)c(C(CC(=O)N2CCCC(C)C2)c2ccc3c(c2)OCO3)c(OC)c1 (stereo not shown) | -5.66 |
| CCCC(=O)N(CCN1CCOCC1)c1nc2c(C)cccc2s1.Cl | -7.14 |
| O=C(CC1C(=O)NCCN1Cc1cccc(Oc2ccccc2)c1)NCCn1cccn1 (stereo not shown) | -26.9 |
| COc1ccc(CC(=O)Nc2cccc(C(=O)NN3C(=O)c4ccccc4C3=O)c2C)cc1 | -3.29 |
| O=C(CN1C(=O)C2CC=CCC2C1=O)Nc1ccc(S(=O)(=O)N2CCOCC2)cc1 (stereo not shown) | 10.3 |
| CC(C)NC(=O)C1CCN(C2CCN(Cc3ccc4cccc(F)c4n3)CC2)CC1 | -38.6 |
| CC(=O)c1sc(NC(=O)CCN2C(=O)C3CC=CCC3C2=O)nc1-c1ccccc1 (stereo not shown) | -33.2 |
| COc1cc(NC(=O)CN(c2cc(C)cc(C)c2)S(=O)(=O)c2c(C)noc2C)cc(OC)c1 | -1.8 |
| Cc1ccc(NC2=NCCCCC2)cc1.Cl | 4.84 |
| Cc1ccccc1NS(=O)(=O)c1cc2c(cc1C)N(C)CCO2 | 7.78 |
| CSc1nc2ccccc2n1CC(=O)N1CCCCC1 | 4.48 |
| CCC(NS(=O)(=O)c1ccc2c(c1)NC(=O)C(C)C(=O)N2)c1cccs1 (stereo not shown) | 6.04 |
| CCOc1ccccc1N1CCN(c2ncnc3scc(-c4ccc(OC)cc4)c23)CC1 | 15.9 |
| CCOC(=O)c1c(C)[nH]c(C(=O)OCC(=O)N(C)c2c(N)n(Cc3ccccc3)c(=O)[nH]c2=O)c1C | 4.34 |
| COc1ccccc1NC(=O)CSc1nnc(-c2ccoc2C)n1C | -1.59 |
| Cc1c(C)c(C)c2[nH]c(-c3ccc4c(c3)OCO4)nc2c1C | 16.1 |
| CC(C)c1nnc(NC(=O)c2ccc(N3C(=O)CCC3=O)cc2)s1 | 13.3 |
| c1ccc(Cc2noc(CN3CCN(CCOc4ccccc4)CC3)n2)cc1 | -40.9 |

| SMILES | hERG current change (%, negative = inhibition) at 10uM [%] |
| --- | --- |
| CCCNC(=O)C1CCC(CNS(=O)(=O)c2ccc3c(c2)N(C(C)=O)CCO3)CC1 (stereo not shown) | 15.7 |
| CC(C)CCNC(=O)C1c2ccccc2Oc2ccccc21 | -26.5 |
| O=C(O)C1=C[C@H](c2csc3ccccc23)C[C@H](OCc2ccc(CO)cc2)O1 | 8.95 |
| CCCCC(C(=O)OCC)C(N)Cc1ccc(F)cc1.Cl (stereo not shown) | -2.12 |
| COc1ccc(CNC(=S)NC2CCCC2)cc1 | 12.5 |
| CCn1nc(C)c(/C=N/NC(=O)c2ccc3c(c2)c(C)c(C)n3Cc2ccccc2)c1C | -1.94 |
| COc1cc(CNc2ccc(CNc3ncn[nH]3)cc2)ccc1OCC(=O)NC(C)(C)C | -0.0129 |
| CCc1n[nH]c2c1/C(=N\O)CC(C)(C)C2 | 11.5 |
| CCCCOc1ccccc1NC(=O)C=C(C)C | -1.61 |
| CC(=O)Cc1nsc(NC(=O)c2cn(-c3ccccc3)nc2-c2ccc(Br)cc2)n1 | 2.86 |
| CCOc1ccc(N(C(=O)CNC(=O)c2ccco2)C(C(=O)NCC2CCCO2)c2ccccc2)cc1 (stereo not shown) | 4.03 |
| COc1cc(C(=S)N2CCOCC2)cc(OC)c1OC(=O)Cc1ccc(F)cc1 | -5.55 |
| CCOC(=O)C1(CCCc2ccccc2)CCN(Cc2cnn(C)c2)CC1 | -71.6 |
| Cc1csc(NC(=O)CCNC(=O)c2ccccc2Cl)n1 | 5.34 |
| COC(=O)C1=C(Nc2ccccc2NS(=O)(=O)c2ccc(C(F)(F)F)cc2Cl)CSC1 | 3.57 |
| O=C(NCCc1nnc2ccc(SCC(=O)N3CCCC3)nn12)c1ccc(F)cc1 | 1 |
| CC(=O)Nc1ccc(-c2ccccc2)s1 | 25.4 |
| CN1CCC(CN)(N2CCN(c3ccccc3)CC2)CC1 | 8.38 |
| O=[N+]([O-])c1ccc2c(c1)nc1n2CCCCC1 | -26.9 |
| O=C(CN1CCCCC1)Nc1ccc(Br)cc1[N+](=O)[O-] | 1.74 |
| COc1cc2cncc(Cc3ccc(Cl)cc3)c2cc1OC.CS(=O)(=O)O | -7.87 |
| O=C(Nc1c(Cl)cccc1Cl)C1CCC1 | 16.3 |
